Source: the supplement of paper PMC4967469
A lower IC50 marks a more sensitive line; a limit (>, <) means that the fit lies beyond the doses tested. For AUC the same curve is integrated over the 256-fold range of doses and scaled to a fraction; the more sensitive the line, the further below 1. Any top dose called inferred is not printed in the source and was worked back from the curve model.

Assays:
Assay in all cases: Viability of human cancer cell lines after 72 h of drug (GDSC screen)
[1] = compound: Cn1cncc1[C@@](N)(c1ccc(Cl)cc1)c1ccc2c(c1)c(-c1cccc(Cl)c1)cc(=O)n2C [Tipifarnib]; conditions: top dose 16 µM; top dose inferred
Procedure: (§1)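 Human cancer cell lines in 384-well plates, medium with 10% serum, drug for 72 h over a 256-fold dose range (nine 2-fold or five 4-fold steps up to the top dose). Adherent lines were fixed and stained with the nucleic acid dye Syto60, suspension lines read with resazurin; signal relative to control wells, capped at 0 and 100%. One two-parameter sigmoid per drug and line, fitted in a mixed model over all curves with the slope shared within a line.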

[2] = compound: CCc1cc(Nc2nccc(-c3c(-c4ccc(OC)c(C(=O)Nc5c(F)cccc5F)c4)nc4ccccn34)n2)c(OC)cc1N1CCC(N2CCN(S(C)(=O)=O)CC2)CC1 [GSK-1904529A]; conditions: top dose 1.024 µM; top dose inferred
Procedure: as §1

[3] = compound: COc1cc(C)c(Sc2cnc(NC(=O)c3ccc(CNC(C)C(C)(C)C)cc3)s2)cc1C(=O)N1CCN(C(C)=O)CC1 [BMS-509744]; conditions: top dose 10.24 µM; top dose inferred
Procedure: as §1

[4] = compound: COc1ccccc1S(=O)(=O)Nc1ccc2c(c1)CN(C)C(=O)N2 [PFI-1]; conditions: top dose 10 µM; top dose inferred
Procedure: as §1

[5] = compound: CCN1CCN(Cc2ccc(NC(=O)c3ccc(C)c(Oc4ccnc5[nH]ccc45)c3)cc2C(F)(F)F)CC1 [NG-25]; conditions: top dose 10.24 µM; top dose inferred
Procedure: as §1

| Cell Line | AUC [1] | IC50 [1] | AUC [2] | IC50 [2] | AUC [3] | IC50 [3] | AUC [4] | IC50 [4] | AUC [5] | IC50 [5] |
| --- | --- | --- | --- | --- | --- | --- | --- | --- | --- | --- |
| HL-60 (acute myeloid leukaemia, suspension) | 0.684 | 3.07 µM | 0.99 | > 1.02 µM | 0.912 | > 10.2 µM | 0.845 | 6.15 µM | 0.956 | > 10.2 µM |
| HOP-62 (lung adenocarcinoma, adherent) | 0.677 | 3.11 µM | 0.985 | > 1.02 µM | 0.814 | 5.55 µM | 0.777 | 4.01 µM | 0.805 | 5.15 µM |
| NCI-H1436 (small cell lung carcinoma, suspension) | 0.918 | > 16 µM | 0.982 | > 1.02 µM | 0.852 | 9.72 µM | 0.942 | > 10 µM | 0.858 | > 10.2 µM |
| LB771-HNC (head and neck, adherent) | 0.543 | 1.35 µM | 0.962 | > 1.02 µM | 0.845 | > 10.2 µM | 0.747 | 3.9 µM | 0.873 | > 10.2 µM |
| NMC-G1 (glioma, adherent) | 0.379 | 0.429 µM | 0.964 | > 1.02 µM | 0.787 | 5.61 µM | 0.939 | > 10 µM | 0.811 | 7.01 µM |
| SK-MEL-2 (melanoma, adherent) | 0.439 | 0.678 µM | 0.986 | > 1.02 µM | 0.956 | > 10.2 µM | 0.924 | > 10 µM | 0.987 | > 10.2 µM |
| CCRF-CEM (lymphoblastic leukaemia, suspension) | 0.627 | 2.1 µM | 0.977 | > 1.02 µM | 0.94 | > 10.2 µM | 0.906 | 9.77 µM | 0.852 | 6.03 µM |
| OVCAR-4 (ovary, adherent) | 0.595 | 2.07 µM | 0.972 | > 1.02 µM | 0.828 | > 10.2 µM | 0.857 | > 10 µM | 0.828 | > 10.2 µM |
| SF539 (glioma, adherent) | 0.895 | > 16 µM | 0.989 | > 1.02 µM | 0.983 | > 10.2 µM | 0.859 | 7.01 µM | 0.858 | 7.12 µM |
| ETK-1 (biliary tract, adherent) | 0.242 | 0.16 µM | 0.977 | > 1.02 µM | 0.64 | 1.65 µM | 0.809 | 6.1 µM | 0.711 | 2.76 µM |
| SK-N-FI (neuroblastoma, adherent) | 0.98 | > 16 µM | 0.989 | > 1.02 µM | 0.982 | > 10.2 µM | 0.894 | > 10 µM | 0.94 | > 10.2 µM |
| OMC-1 (cervix, adherent) | 0.768 | 6.28 µM | 0.971 | > 1.02 µM | 0.986 | > 10.2 µM | 0.905 | > 10 µM | 0.972 | > 10.2 µM |
| LP-1 (myeloma, suspension) | 0.894 | 13.4 µM | 0.988 | > 1.02 µM | 0.988 | > 10.2 µM | 0.977 | > 10 µM | 0.864 | 6.55 µM |
| SCC-15 (head and neck, adherent) | 0.721 | 5.33 µM | 0.975 | > 1.02 µM | 0.92 | > 10.2 µM | 0.798 | 6.79 µM | 0.896 | > 10.2 µM |
| NCI-H345 (small cell lung carcinoma, suspension) | 0.979 | > 16 µM | 0.99 | > 1.02 µM | 0.926 | > 10.2 µM | 0.974 | > 10 µM | 0.988 | > 10.2 µM |
| LS-513 (large intestine, adherent) | 0.932 | > 16 µM | 0.983 | > 1.02 µM | 0.971 | > 10.2 µM | 0.966 | > 10 µM | 0.789 | 4.73 µM |
| TK10 (kidney, adherent) | 0.721 | 4.88 µM | 0.974 | > 1.02 µM | 0.928 | > 10.2 µM | 0.879 | > 10 µM | 0.74 | 3.66 µM |
| SH-4 (melanoma, adherent) | 0.539 | 1.35 µM | 0.954 | > 1.02 µM | 0.688 | 2.91 µM | 0.849 | > 10 µM | 0.785 | 7.29 µM |
| Becker (glioma, adherent) | 0.755 | 6.06 µM | 0.979 | > 1.02 µM | 0.958 | > 10.2 µM | 0.85 | 9.05 µM | 0.939 | > 10.2 µM |
| ES-2 (ovary, adherent) | 0.986 | > 16 µM | 0.991 | > 1.02 µM | 0.984 | > 10.2 µM | 0.99 | > 10 µM | 0.593 | 1.11 µM |

| Cell Line | AUC [1] | IC50 [1] | AUC [2] | IC50 [2] | AUC [3] | IC50 [3] | AUC [4] | IC50 [4] | AUC [5] | IC50 [5] |
| --- | --- | --- | --- | --- | --- | --- | --- | --- | --- | --- |
| MS-1 (small cell lung carcinoma, suspension) | 0.807 | 7.2 µM | 0.979 | > 1.02 µM | 0.871 | 7.97 µM | 0.962 | > 10 µM | 0.841 | 6.04 µM |
| NAMALWA (Burkitt lymphoma, suspension) | 0.802 | 6.46 µM | 0.991 | > 1.02 µM | 0.894 | 8.88 µM | 0.81 | 4.26 µM | 0.584 | 1.04 µM |
| KS-1 (glioma, adherent) | 0.495 | 0.964 µM | 0.966 | > 1.02 µM | 0.632 | 1.62 µM | 0.819 | 7.58 µM | 0.761 | 4.5 µM |
| BB65-RCC (kidney, adherent) | 0.606 | 2.05 µM | 0.975 | > 1.02 µM | 0.932 | > 10.2 µM | 0.899 | > 10 µM | 0.869 | > 10.2 µM |
| WSU-DLCL2 (B-cell lymphoma, suspension) | 0.906 | 15.2 µM | 0.993 | > 1.02 µM | 0.993 | > 10.2 µM | 0.892 | 8.27 µM | 0.931 | > 10.2 µM |
| TE-1 (oesophagus, adherent) | 0.613 | 2.22 µM | 0.969 | > 1.02 µM | 0.838 | 9.77 µM | 0.909 | > 10 µM | 0.978 | > 10.2 µM |
| CW-2 (large intestine, adherent) | 0.989 | > 16 µM | 0.989 | > 1.02 µM | 0.989 | > 10.2 µM | 0.973 | > 10 µM | 0.938 | > 10.2 µM |
| VCaP (prostate, adherent) | 0.671 | 3.06 µM | 0.955 | > 1.02 µM | 0.799 | 5.13 µM | 0.821 | 6.06 µM | 0.987 | > 10.2 µM |
| SK-ES-1 (Ewing sarcoma, semi-adherent) | 0.391 | 0.491 µM | 0.983 | > 1.02 µM | 0.785 | 4.68 µM | 0.977 | > 10 µM | 0.864 | 9.93 µM |
| GB-1 (glioma, adherent) | 0.567 | 1.57 µM | 0.98 | > 1.02 µM | 0.858 | > 10.2 µM | 0.975 | > 10 µM | 0.745 | 3.73 µM |
| RH-1 (rhabdomyosarcoma, adherent) | 0.674 | 2.79 µM | 0.982 | > 1.02 µM | 0.967 | > 10.2 µM | 0.94 | > 10 µM | 0.752 | 2.9 µM |
| P30-OHK (lymphoblastic leukaemia, suspension) | 0.309 | 0.323 µM | 0.983 | > 1.02 µM | 0.958 | > 10.2 µM | 0.604 | 1.15 µM | 0.424 | 0.413 µM |
| RF-48 (stomach, adherent) | 0.556 | 1.45 µM | 0.985 | > 1.02 µM | 0.941 | > 10.2 µM | 0.975 | > 10 µM | 0.367 | 0.263 µM |
| PF-382 (T-cell lymphoblastic leukaemia, suspension) | 0.592 | – | 0.991 | > 1.02 µM | 0.942 | > 10.2 µM | 0.945 | > 10 µM | 0.669 | 1.77 µM |
| MMAC-SF (melanoma, adherent) | 0.794 | 7.74 µM | 0.983 | > 1.02 µM | 0.899 | > 10.2 µM | 0.832 | 6.75 µM | 0.987 | > 10.2 µM |
| ONS-76 (medulloblastoma, adherent) | 0.545 | 1.34 µM | 0.981 | > 1.02 µM | 0.939 | > 10.2 µM | 0.912 | > 10 µM | 0.964 | > 10.2 µM |
| Daudi (Burkitt lymphoma, suspension) | 0.65 | 2.45 µM | 0.987 | > 1.02 µM | 0.928 | > 10.2 µM | 0.777 | 3.5 µM | 0.747 | 2.92 µM |
| HC-1 (hairy cell leukaemia, suspension) | 0.535 | 1.24 µM | 0.983 | > 1.02 µM | 0.941 | > 10.2 µM | 0.803 | 4.74 µM | 0.619 | 1.34 µM |
| SUP-M2 (anaplastic large cell lymphoma, suspension) | 0.715 | 3.4 µM | 0.994 | > 1.02 µM | 0.885 | 6.68 µM | 0.76 | 2.79 µM | 0.902 | 7.73 µM |
| WSU-NHL (lymphoid neoplasm, suspension) | 0.738 | 4.33 µM | 0.989 | > 1.02 µM | 0.978 | > 10.2 µM | 0.803 | 4.27 µM | 0.864 | 7.22 µM |
